In PMC7110144:
No constants are given. Whether binding was seen depends on the method and setting. Where a sequence is shown, tags or fusion partners need not be part of it.

Target: T1, His-CENP-C(1264-1411 L1357E/M1407E) (Drosophila melanogaster) (UniProt Q9VHP9)
T1 sequence: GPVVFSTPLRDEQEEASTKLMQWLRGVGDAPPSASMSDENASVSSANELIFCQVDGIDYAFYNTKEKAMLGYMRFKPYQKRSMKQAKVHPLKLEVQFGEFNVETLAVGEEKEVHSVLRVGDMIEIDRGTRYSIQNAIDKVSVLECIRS
Test: SEC-MALS; Superdex 200 increase 10/300 GL, 50 mM HEPES pH 8.0, 300 mM NaCl, 1 mM TCEP, 22°C; both purified

binding: no binding
B1: His-CENP-C(1264-1411 L1357E/M1407E) (domain or fragment, UniProt Q9VHP9 1264-1411)
chain: T1 sequence
